Here are results for 195 variants from a collection of fitness landscapes (doi:10.1126/science.1257360).

First the molecules themselves.
B1: PhoQ; a variant is named by its letters at X, in order, P23837 (parent)
chain: MKKLLRLFFPLSLRVRFLLATAAVVLVLSLAYGMVALIGYSVSFDKTTFRLLRGESNLFYTLAKWENNKLHVELPENIDKQSPTMTLIYDENGQLLWAQRDVPWLMKMIQPDWLKSNGFHEIEADVNDTSLLLSGDHSIQQQLQEVREDDDDAEMTHSVAVNVYPATSRMPKLTIVVVDTIPVELKSSYMVWSWFIYVLSANLLLVIPLLWVAAWWSLRPIEALAKEVRELEEHNRELLNPATTRELTSLVRNLNRLLKSERERYDKYRTTLTDLTHSLKTPLXXLQXXLRSLRSEKMSVSDAEPVMLEQISRISQQIGYYLHRASMRGGTLLSRELHPVAPLLDNLTSALNKVYQRKGVNISLDISPEISFVGEQNDFVEVMGNVLDNACKYCLEFVEISARQTDEHLYIVVEDDGPGIPLSKREVIFDRGQRVDTLRPGQGVGLAVAREITEQYEGKIVAGESMLGGARMEVIFGRQHSAPKDE

This is one part of the list.

Variants of B1 are the subject of the assay. Description: enrichment ratio after two sorts for PhoP signalling (ratio (wild type AVST 3.29)); higher = more functional. The conditions noted are these: with PhoP (E. coli).
As for PGRW, the enrichment ratio was not above 0.25.

FIYE: the enrichment ratio was not above 0.25.

As to NNPS, the enrichment ratio is not above 0.25.

Consider ELYK, for which the enrichment ratio was not above 0.25.

Turning to AVTR, the enrichment ratio came out at 7.68.

With VGTV, the enrichment ratio is not above 0.25.

Turning to VCGM, the enrichment ratio is not above 0.25.

Turning to FCTR, the enrichment ratio was not above 0.25.

As to VHCC, the enrichment ratio is not above 0.25.

As for WSNY, the enrichment ratio is not above 0.25.

GCAE: the enrichment ratio is not above 0.25.

Regarding YATD, the enrichment ratio was not above 0.25.

Consider PIME, for which the enrichment ratio is not above 0.25.

Regarding ILCN, the enrichment ratio was not above 0.25.

For VRAW, the enrichment ratio is not above 0.25.

Take ADTS: the enrichment ratio was not above 0.25.

With NPCY, the enrichment ratio is not above 0.25.

As for MLLW, the enrichment ratio was not above 0.25.

As for NLFF, the enrichment ratio is not above 0.25.

As to TICA, the enrichment ratio worked out at 12.3.

Consider DLVH, for which the enrichment ratio is not above 0.25.

In the case of RWIN, the enrichment ratio was not above 0.25.

With WQIW, the enrichment ratio is not above 0.25.

Take DAID: the enrichment ratio was not above 0.25.

Consider EPHW, for which the enrichment ratio was not above 0.25.

For WFHE, the enrichment ratio was not above 0.25.

For TTQA, the enrichment ratio is 1.39.

Consider FTAM, for which the enrichment ratio stood at 2.38.

Take MKGC: the enrichment ratio is not above 0.25.

For the variant MKPW, the enrichment ratio is not above 0.25.

For the variant VPKV, the enrichment ratio was not above 0.25.

TFWC: the enrichment ratio was not above 0.25.

TAGQ: the enrichment ratio is 4.6.

Consider VSWM, for which the enrichment ratio was 2.15.

For ADTY, the enrichment ratio was not above 0.25.

With SQHA, the enrichment ratio is not above 0.25.

Regarding SCCE, the enrichment ratio was determined as 13.9.

Consider FTIE, for which the enrichment ratio is not above 0.25.

As to YVLT, the enrichment ratio is not above 0.25.

Consider DIRS, for which the enrichment ratio is not above 0.25.

Turning to GMCP, the enrichment ratio is not above 0.25.

Turning to MTTV, the enrichment ratio was not above 0.25.

As for KLLF, the enrichment ratio was not above 0.25.

For the variant IFGD, the enrichment ratio is not above 0.25.

Consider HEYI, for which the enrichment ratio was not above 0.25.

Take WMQK: the enrichment ratio is not above 0.25.

In the case of FIYT, the enrichment ratio was not above 0.25.

Turning to NQRN, the enrichment ratio was not above 0.25.

ITHA: the enrichment ratio was not above 0.25.

For the variant LCPI, the enrichment ratio is not above 0.25.

With IHSK, the enrichment ratio is not above 0.25.

In the case of IDLM, the enrichment ratio was not above 0.25.

Consider PKRV, for which the enrichment ratio is not above 0.25.

In the case of SWRW, the enrichment ratio is not above 0.25.

TQAG: the enrichment ratio is 28.2.

For the variant YFEF, the enrichment ratio was not above 0.25.

Take DAQH: the enrichment ratio is not above 0.25.

As to YDYM, the enrichment ratio was not above 0.25.

With SDHN, the enrichment ratio is 0.345.

For DVMP, the enrichment ratio was not above 0.25.

Take SRAL: the enrichment ratio was not above 0.25.

As to WPPA, the enrichment ratio was not above 0.25.

Turning to DKRT, the enrichment ratio was not above 0.25.

NRGV: the enrichment ratio was not above 0.25.

Take HPDH: the enrichment ratio was not above 0.25.

As to MEIQ, the enrichment ratio was 19.4.

As for VHNK, the enrichment ratio was not above 0.25.

YQRT: the enrichment ratio was not above 0.25.

Regarding DGYC, the enrichment ratio was not above 0.25.

As to IHNV, the enrichment ratio is not above 0.25.

For the variant ESVG, the enrichment ratio was not above 0.25.

Turning to GQAI, the enrichment ratio turned out to be 4.1.

In the case of IMPG, the enrichment ratio was not above 0.25.

In the case of LMYY, the enrichment ratio is not above 0.25.

On to LSMD, for which the enrichment ratio is not above 0.25.

On to QDFF, for which the enrichment ratio was not above 0.25.

On to RVYW, for which the enrichment ratio is not above 0.25.

As for VGAT, the enrichment ratio was not above 0.25.

With TEEC, the enrichment ratio stood at 12.4.

MQHT: the enrichment ratio was not above 0.25.

Turning to FNMG, the enrichment ratio was not above 0.25.

Take KPDI: the enrichment ratio was not above 0.25.

As to QSPT, the enrichment ratio was not above 0.25.

In the case of GRYL, the enrichment ratio is not above 0.25.

As to KSNH, the enrichment ratio is not above 0.25.

Take VQTY: the enrichment ratio is not above 0.25.

For the variant TKMN, the enrichment ratio worked out at 4.26.

As to YPET, the enrichment ratio is not above 0.25.

DQPD: the enrichment ratio is not above 0.25.

Take GNKK: the enrichment ratio was not above 0.25.

Take SGSR: the enrichment ratio is not above 0.25.

PFLP: the enrichment ratio is not above 0.25.

Regarding WVPS, the enrichment ratio is not above 0.25.

For the variant NCSW, the enrichment ratio was not above 0.25.

NPAW: the enrichment ratio was not above 0.25.

Consider YISI, for which the enrichment ratio worked out at 2.89.

As to WHMF, the enrichment ratio was not above 0.25.

Regarding NKLG, the enrichment ratio is not above 0.25.

In the case of YEVW, the enrichment ratio is not above 0.25.

For SACI, the enrichment ratio came out at 13.7.

On to DTFQ, for which the enrichment ratio was not above 0.25.

Take KKAI: the enrichment ratio was not above 0.25.

For the variant AQVP, the enrichment ratio is not above 0.25.

Regarding FRKG, the enrichment ratio was not above 0.25.

For the variant IYDV, the enrichment ratio is not above 0.25.

Take ICLF: the enrichment ratio was not above 0.25.

On to SHGC, for which the enrichment ratio is not above 0.25.

In the case of VAER, the enrichment ratio was not above 0.25.

Turning to RVSQ, the enrichment ratio was not above 0.25.

For TFGT, the enrichment ratio is not above 0.25.

For the variant DADC, the enrichment ratio was not above 0.25.

Turning to FTMI, the enrichment ratio was determined as 13.1.

On to WNFF, for which the enrichment ratio is not above 0.25.

VKII: the enrichment ratio was not above 0.25.

On to MYCD, for which the enrichment ratio is not above 0.25.

For the variant MYVD, the enrichment ratio is not above 0.25.

In the case of RFRA, the enrichment ratio was not above 0.25.

In the case of QMRE, the enrichment ratio was not above 0.25.

As for YYLT, the enrichment ratio is not above 0.25.

As to TQDT, the enrichment ratio is not above 0.25.

For the variant DNNF, the enrichment ratio was not above 0.25.

Take DYSP: the enrichment ratio was not above 0.25.

Regarding VPEN, the enrichment ratio was not above 0.25.

GWYK: the enrichment ratio is not above 0.25.

Take WSIF: the enrichment ratio is not above 0.25.

For TFEL, the enrichment ratio was not above 0.25.

As for SDCK, the enrichment ratio was not above 0.25.

With QQLV, the enrichment ratio was determined as 1.8.

On to EPQF, for which the enrichment ratio was not above 0.25.

In the case of DKNN, the enrichment ratio was not above 0.25.

On to PCNC, for which the enrichment ratio is not above 0.25.

Consider GNML, for which the enrichment ratio was found to be 12.2.

On to GQYA, for which the enrichment ratio was not above 0.25.

Consider PVVE, for which the enrichment ratio was not above 0.25.

Turning to VRGA, the enrichment ratio is not above 0.25.

As for DCDI, the enrichment ratio is not above 0.25.

Turning to ESYG, the enrichment ratio was not above 0.25.

Consider PVFF, for which the enrichment ratio is not above 0.25.

On to YPGW, for which the enrichment ratio is not above 0.25.

Consider KDRE, for which the enrichment ratio is not above 0.25.

Take TTKR: the enrichment ratio was not above 0.25.

Turning to YGHN, the enrichment ratio is not above 0.25.

Turning to DNRW, the enrichment ratio was not above 0.25.

As for EGNI, the enrichment ratio is not above 0.25.

On to QVCA, for which the enrichment ratio was not above 0.25.

IRWA: the enrichment ratio was not above 0.25.

With WEQW, the enrichment ratio was not above 0.25.

On to IQYT, for which the enrichment ratio was not above 0.25.

Consider TRPI, for which the enrichment ratio was not above 0.25.

HAIK: the enrichment ratio was not above 0.25.

As to WRMF, the enrichment ratio was not above 0.25.

For GPIQ, the enrichment ratio is not above 0.25.

For the variant WMHI, the enrichment ratio was not above 0.25.

With SVDP, the enrichment ratio was not above 0.25.

As for DTYS, the enrichment ratio is not above 0.25.

Regarding RVIL, the enrichment ratio was not above 0.25.

As to VLHV, the enrichment ratio was not above 0.25.

For KGMS, the enrichment ratio is not above 0.25.

For NDCI, the enrichment ratio is not above 0.25.

For the variant TWDP, the enrichment ratio was not above 0.25.

DGHR: the enrichment ratio is not above 0.25.

Turning to PQAF, the enrichment ratio was not above 0.25.

Consider HNFP, for which the enrichment ratio is not above 0.25.

Turning to RYRF, the enrichment ratio is not above 0.25.

With WQTN, the enrichment ratio was not above 0.25.

For the variant MRHH, the enrichment ratio was not above 0.25.

Regarding VFID, the enrichment ratio was not above 0.25.

On to RQNY, for which the enrichment ratio was not above 0.25.

For the variant MRYF, the enrichment ratio was not above 0.25.

For the variant DKMI, the enrichment ratio is not above 0.25.

Take QLRQ: the enrichment ratio was not above 0.25.

With SDGN, the enrichment ratio is not above 0.25.

Turning to QWTF, the enrichment ratio was not above 0.25.

Take LFII: the enrichment ratio was not above 0.25.

With DFNI, the enrichment ratio was not above 0.25.

As to HCLD, the enrichment ratio is not above 0.25.

For SCEN, the enrichment ratio was not above 0.25.

Consider TCYF, for which the enrichment ratio is not above 0.25.

Regarding DERD, the enrichment ratio is not above 0.25.

As to DRSH, the enrichment ratio was not above 0.25.

On to WGQR, for which the enrichment ratio was not above 0.25.

Consider GDHF, for which the enrichment ratio was not above 0.25.

Turning to VFRN, the enrichment ratio was not above 0.25.

On to TAHR, for which the enrichment ratio was not above 0.25.

As for DSAV, the enrichment ratio is not above 0.25.

Consider YPRN, for which the enrichment ratio was not above 0.25.

Turning to NLNV, the enrichment ratio is not above 0.25.

As to TGRW, the enrichment ratio was not above 0.25.

As for SMRD, the enrichment ratio is not above 0.25.

In the case of LETA, the enrichment ratio is not above 0.25.

As for FWRD, the enrichment ratio is not above 0.25.

Take LAMG: the enrichment ratio was 2.14.

Consider SISK, for which the enrichment ratio was 12.1.

Consider WFCN, for which the enrichment ratio is not above 0.25.

With MVVI, the enrichment ratio was not above 0.25.
